# Source: the supplement of paper PMC8728848
# Some of the results follow.
# B1: UEA-I (Ulex europaeus), P22972 (protein)
# chain: SDDLSFKFKNFSQNGKDLSFQGDASVIETGVLQLNKVGNNLPDETGGIARYIAPIHIWNCNTGEVASFITSFSFFMETSANPKAATDGLTFFLAPPDSPLRRAGGYFGLFEDTKDNDSSYQTVAVEFDTIGSPVNFDDPGFPHIGIDVNRVKSINAERWNKRYGLNNVANVEIIYEASSKTLTASLTYPSDQTSISVTSIVDLKEILPEWVSVGFSGGTYIGRQATHEVLNWYFTSNLINTNS
# Tests used:
# Assay in all cases: glycan array binding signal (z-score within array); higher = stronger binding
# Conditions in all cases: glycan notation: IUPAC condensed, linker removed
# [1] = target: Gal(b1-4)GlcNAc(b1-3)Gal(b1-4)GlcNAc(b1-2)Man(a1-3)[Gal(b1-4)GlcNAc(b1-3)Gal(b1-4)GlcNAc(b1-2)Man(a1-6)]Man(b1-4)GlcNAc(b1-4)[Fuc(a1-6)]GlcNAc
# In short: (§1)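 Arrays were curated from the Consortium for Functional Glycomics database, 3228 in total, and kept only where the protein sequence was available. Binding is expressed as a within-array Z-score. This score was averaged across arrays of the same protein sequence at different concentrations or buffers and across linkers, and negative values can be read as non-binding.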
# [2] = target: Gal(b1-4)GlcNAc(b1-3)Gal(b1-4)GlcNAc(b1-2)[Gal(b1-4)GlcNAc(b1-3)Gal(b1-4)GlcNAc(b1-6)]Man(a1-6)[Gal(b1-4)GlcNAc(b1-3)Gal(b1-4)GlcNAc(b1-2)Man(a1-3)]Man(b1-4)GlcNAc(b1-4)GlcNAc
# In short: as §1
# [3] = target: Gal(b1-4)GlcNAc(b1-3)Gal(b1-4)GlcNAc(b1-2)[Gal(b1-4)GlcNAc(b1-3)Gal(b1-4)GlcNAc(b1-6)]Man(a1-6)[Gal(b1-4)GlcNAc(b1-3)Gal(b1-4)GlcNAc(b1-2)Man(a1-3)]Man(b1-4)GlcNAc(b1-4)[Fuc(a1-6)]GlcNAc
# In short: as §1
# [4] = target: Gal(b1-4)GlcNAc(b1-3)Gal(b1-4)GlcNAc(b1-3)Gal(b1-4)GlcNAc
# In short: as §1
# [5] = target: Gal(b1-4)GlcNAc(b1-3)Gal(b1-4)GlcNAc(b1-3)Gal(b1-4)GlcNAc(b1-2)Man(a1-3)[Gal(b1-4)GlcNAc(b1-3)Gal(b1-4)GlcNAc(b1-3)Gal(b1-4)GlcNAc(b1-2)Man(a1-6)]Man(b1-4)GlcNAc(b1-4)GlcNAc
# In short: as §1
# [6] = target: Gal(b1-4)GlcNAc(b1-3)Gal(b1-4)GlcNAc(b1-3)Gal(b1-4)GlcNAc(b1-2)Man(a1-3)[Gal(b1-4)GlcNAc(b1-3)Gal(b1-4)GlcNAc(b1-3)Gal(b1-4)GlcNAc(b1-2)Man(a1-6)]Man(b1-4)GlcNAc(b1-4)[Fuc(a1-6)]GlcNAc
# In short: as §1
# [7] = target: Gal(b1-4)GlcNAc(b1-3)Gal(b1-4)GlcNAc(b1-3)Gal(b1-4)GlcNAc(b1-2)[Gal(b1-4)GlcNAc(b1-3)Gal(b1-4)GlcNAc(b1-3)Gal(b1-4)GlcNAc(b1-6)]Man(a1-6)[Gal(b1-4)GlcNAc(b1-3)Gal(b1-4)GlcNAc(b1-3)Gal(b1-4)GlcNAc(b1-2)Man(a1-3)]Man(b1-4)GlcNAc(b1-4)[Fuc(a1-6)]GlcNAc
# In short: as §1
# [8] = target: Gal(b1-4)GlcNAc(b1-3)Gal(b1-4)GlcNAc(b1-3)Gal(b1-4)GlcNAc(b1-3)Gal(b1-4)GlcNAc(b1-2)Man(a1-3)[Gal(b1-4)GlcNAc(b1-3)Gal(b1-4)GlcNAc(b1-3)Gal(b1-4)GlcNAc(b1-3)Gal(b1-4)GlcNAc(b1-2)Man(a1-6)]Man(b1-4)GlcNAc(b1-4)GlcNAc
# In short: as §1
# [9] = target: Gal(b1-4)GlcNAc(b1-3)Gal(b1-4)GlcNAc(b1-3)Gal(b1-4)GlcNAc(b1-3)Gal(b1-4)GlcNAc(b1-2)Man(a1-3)[Gal(b1-4)GlcNAc(b1-3)Gal(b1-4)GlcNAc(b1-3)Gal(b1-4)GlcNAc(b1-3)Gal(b1-4)GlcNAc(b1-2)Man(a1-6)]Man(b1-4)GlcNAc(b1-4)[Fuc(a1-6)]GlcNAc
# In short: as §1
# [10] = target: Gal(b1-4)GlcNAc(b1-3)Gal(b1-4)GlcNAc(b1-3)Gal(b1-4)GlcNAc(b1-3)Gal(b1-4)GlcNAc(b1-2)[Gal(b1-4)GlcNAc(b1-3)Gal(b1-4)GlcNAc(b1-3)Gal(b1-4)GlcNAc(b1-3)Gal(b1-4)GlcNAc(b1-6)]Man(a1-6)[Gal(b1-4)GlcNAc(b1-3)Gal(b1-4)GlcNAc(b1-3)Gal(b1-4)GlcNAc(b1-3)Gal(b1-4)GlcNAc(b1-2)Man(a1-3)]Man(b1-4)GlcNAc(b1-4)[Fuc(a1-6)]GlcNAc
# In short: as §1
# [11] = target: Gal(b1-4)GlcNAc(b1-3)Gal(b1-4)GlcNAc(b1-3)Gal(b1-4)GlcNAc(b1-3)Gal(b1-4)GlcNAc(b1-3)Gal(b1-4)GlcNAc(b1-2)Man(a1-3)[Gal(b1-4)GlcNAc(b1-3)Gal(b1-4)GlcNAc(b1-3)Gal(b1-4)GlcNAc(b1-3)Gal(b1-4)GlcNAc(b1-3)Gal(b1-4)GlcNAc(b1-2)Man(a1-6)]Man(b1-4)GlcNAc(b1-4)GlcNAc
# In short: as §1
# [12] = target: Gal(b1-4)GlcNAc(b1-3)Gal(b1-4)GlcNAc(b1-3)Gal(b1-4)GlcNAc(b1-3)Gal(b1-4)GlcNAc(b1-3)Gal(b1-4)GlcNAc(b1-2)Man(a1-3)[Gal(b1-4)GlcNAc(b1-3)Gal(b1-4)GlcNAc(b1-3)Gal(b1-4)GlcNAc(b1-3)Gal(b1-4)GlcNAc(b1-3)Gal(b1-4)GlcNAc(b1-2)Man(a1-6)]Man(b1-4)GlcNAc(b1-4)[Fuc(a1-6)]GlcNAc
# In short: as §1
# [13] = target: Gal(b1-4)GlcNAc(b1-3)Gal(b1-4)GlcNAc(b1-3)Gal(b1-4)GlcNAc(b1-3)Gal(b1-4)GlcNAc(b1-3)Gal(b1-4)GlcNAc(b1-2)[Gal(b1-4)GlcNAc(b1-3)Gal(b1-4)GlcNAc(b1-3)Gal(b1-4)GlcNAc(b1-3)Gal(b1-4)GlcNAc(b1-3)Gal(b1-4)GlcNAc(b1-6)]Man(a1-6)[Gal(b1-4)GlcNAc(b1-3)Gal(b1-4)GlcNAc(b1-3)Gal(b1-4)GlcNAc(b1-3)Gal(b1-4)GlcNAc(b1-3)Gal(b1-4)GlcNAc(b1-2)Man(a1-3)]Man(b1-4)GlcNAc(b1-4)[Fuc(a1-6)]GlcNAc
# In short: as §1
# [14] = target: Gal(b1-4)GlcNAc(b1-3)Gal(b1-4)GlcNAc(b1-3)Gal(b1-4)GlcNAc(b1-3)Gal(b1-4)GlcNAc(b1-3)Gal(b1-4)GlcNAc(b1-3)Gal(b1-4)GlcNAc(b1-2)Man(a1-3)[Gal(b1-4)GlcNAc(b1-3)Gal(b1-4)GlcNAc(b1-3)Gal(b1-4)GlcNAc(b1-3)Gal(b1-4)GlcNAc(b1-3)Gal(b1-4)GlcNAc(b1-3)Gal(b1-4)GlcNAc(b1-2)Man(a1-6)]Man(b1-4)GlcNAc(b1-4)GlcNAc
# In short: as §1
# [15] = target: Gal(b1-4)GlcNAc(b1-3)Gal(b1-4)GlcNAc(b1-3)GalNAc
# In short: as §1
# [16] = target: Gal(b1-4)GlcNAc(b1-3)Gal(b1-4)GlcNAc(b1-3)[Gal(b1-4)GlcNAc(b1-3)Gal(b1-4)GlcNAc(b1-6)]GalNAc
# In short: as §1
# [17] = target: Gal(b1-4)GlcNAc(b1-3)Gal(b1-4)GlcNAc(b1-6)[Gal(b1-3)]GalNAc
# In short: as §1
# [18] = target: Gal(b1-4)GlcNAc(b1-3)Gal(b1-4)[Fuc(a1-3)]GlcNAc(b1-3)Gal(b1-4)[Fuc(a1-3)]GlcNAc
# In short: as §1
# [19] = target: Gal(b1-4)GlcNAc(b1-3)GalNAc
# In short: as §1
# [20] = target: Gal(b1-4)GlcNAc(b1-3)[Fuc(a1-3)GlcNAc(b1-6)]Gal(b1-4)Glc
# In short: as §1
# [21] = target: Gal(b1-4)GlcNAc(b1-3)[Gal(b1-4)GlcNAc(b1-6)]Gal(b1-4)GlcNAc
# In short: as §1
# [22] = target: Gal(b1-4)GlcNAc(b1-3)[Gal(b1-4)GlcNAc(b1-6)]GalNAc
# In short: as §1
# [23] = target: Gal(b1-4)GlcNAc(b1-3)[GlcNAc(b1-6)]Gal(b1-4)GlcNAc
# In short: as §1
# [24] = target: Gal(b1-4)GlcNAc(b1-6)Gal(b1-4)GlcNAc
# In short: as §1
# [25] = target: Gal(b1-4)GlcNAc(b1-6)Gal(b1-4)GlcNAc(b1-6)GalNAc
# In short: as §1
# [26] = target: Gal(b1-4)GlcNAc(b1-6)GalNAc
# In short: as §1
# [27] = target: Gal(b1-4)GlcNAc(b1-6)[Gal(b1-3)]GalNAc
# In short: as §1
# [28] = target: Gal(b1-4)GlcNAc(b1-6)[Gal(b1-3)]GlcNAc
# In short: as §1
# [29] = target: Gal(b1-4)GlcNAc(b1-6)[Gal(b1-4)GlcNAc(b1-3)]GalNAc
# In short: as §1
# [30] = target: Gal(b1-4)GlcNAc6P
# In short: as §1
# [31] = target: Gal(b1-6)Gal
# In short: as §1
# [32] = target: Gal3S(b1-3)GalNAc
# In short: as §1
# [33] = target: Gal3S(b1-3)GlcNAc
# In short: as §1
# [34] = target: Gal3S(b1-3)[Fuc(a1-4)]GlcNAc
# In short: as §1
# [35] = target: Gal3S(b1-4)Glc
# In short: as §1
# [36] = target: Gal3S(b1-4)Glc6S
# In short: as §1
# [37] = target: Gal3S(b1-4)GlcNAc
# In short: as §1
# [38] = target: Gal3S(b1-4)GlcNAc6S
# In short: as §1
binder,measurement,setting,value
B1,glycan array binding signal (z-score),[1],-0.011
same,glycan array binding signal (z-score),[2],-0.144
same,glycan array binding signal (z-score),[3],-0.047
same,glycan array binding signal (z-score),[4],-0.19
same,glycan array binding signal (z-score),[5],0.274
same,glycan array binding signal (z-score),[6],-0.105
same,glycan array binding signal (z-score),[7],-0.002
same,glycan array binding signal (z-score),[8],-0.135
same,glycan array binding signal (z-score),[9],-0.103
same,glycan array binding signal (z-score),[10],-0.13
same,glycan array binding signal (z-score),[11],-0.127
same,glycan array binding signal (z-score),[12],-0.21
same,glycan array binding signal (z-score),[13],-0.084
same,glycan array binding signal (z-score),[14],-0.196
same,glycan array binding signal (z-score),[15],0.337
same,glycan array binding signal (z-score),[16],0.47
same,glycan array binding signal (z-score),[17],0.232
same,glycan array binding signal (z-score),[18],-0.182
same,glycan array binding signal (z-score),[19],-0.16
same,glycan array binding signal (z-score),[20],-0.154
same,glycan array binding signal (z-score),[21],-0.08
same,glycan array binding signal (z-score),[22],-0.196
same,glycan array binding signal (z-score),[23],-0.208
same,glycan array binding signal (z-score),[24],-0.195
same,glycan array binding signal (z-score),[25],-0.226
same,glycan array binding signal (z-score),[26],-0.11
same,glycan array binding signal (z-score),[27],-0.084
same,glycan array binding signal (z-score),[28],-0.588
same,glycan array binding signal (z-score),[29],-0.14
same,glycan array binding signal (z-score),[30],-0.15
same,glycan array binding signal (z-score),[31],-0.224
same,glycan array binding signal (z-score),[32],-0.206
same,glycan array binding signal (z-score),[33],-0.201
same,glycan array binding signal (z-score),[34],-0.152
same,glycan array binding signal (z-score),[35],-0.175
same,glycan array binding signal (z-score),[36],-0.125
same,glycan array binding signal (z-score),[37],-0.213
same,glycan array binding signal (z-score),[38],0.289
